Paper PMC9911399, “Two distinct binding modes provide the RNA-binding protein RbFox with extraordinary sequence specificity”
Substitutions are numbered along the chain they refer to; changes in the protein carry UniProt numbers. This is one part of the list.

T1: RBFOX1 RRM (Homo sapiens, UniProt Q9NWB1 109-208)
T1 sequence: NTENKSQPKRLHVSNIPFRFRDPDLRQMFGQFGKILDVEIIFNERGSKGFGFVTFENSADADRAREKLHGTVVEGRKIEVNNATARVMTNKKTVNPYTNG

B1: CGUUAAG (DNA:RNA)
RNA: GGGAGACCGGAAUUCAGAUUGUCCCGUUAAGUUAAAUCCCGUCGUAGCCACCA
DNA 1: CAATCTGAATTCCGGTCTCCC
DNA 2: TGGTGGCTACGACGGGATT
B2: CAUUCCC (DNA:RNA)
RNA: B1 RNA with G26A, A29C, A30C, G31C
DNA 1: CAATCTGAATTCCGGTCTCCC
DNA 2: TGGTGGCTACGACGGGATT
B3: ACUCAUG (DNA:RNA)
RNA: B1 RNA with C25A, G26C, U28C, A30U
DNA 1: CAATCTGAATTCCGGTCTCCC
DNA 2: TGGTGGCTACGACGGGATT
B4: GAAGUCC (DNA:RNA)
RNA: GGGAGACCGGAAUUCAGAUUGUCCGAAGUCCUUAAAUCCCGUCGUAGCCACCA
DNA 1: CAATCTGAATTCCGGTCTCCC
DNA 2: TGGTGGCTACGACGGGATT
B5: ACCAGAA (DNA:RNA)
RNA: B1 RNA with C25A, G26C, U27C, U28A, A29G, G31A
DNA 1: CAATCTGAATTCCGGTCTCCC
DNA 2: TGGTGGCTACGACGGGATT
B6: AUAUUUG (DNA:RNA)
RNA: B1 RNA with C25A, G26U, U27A, A29U, A30U
DNA 1: CAATCTGAATTCCGGTCTCCC
DNA 2: TGGTGGCTACGACGGGATT
B7: UCCACGC (DNA:RNA)
RNA: B4 RNA with G25U, A26C, A27C, G28A, U29C, C30G
DNA 1: CAATCTGAATTCCGGTCTCCC
DNA 2: TGGTGGCTACGACGGGATT
B8: CCGCAAG (DNA:RNA)
RNA: B1 RNA with G26C, U27G, U28C
DNA 1: CAATCTGAATTCCGGTCTCCC
DNA 2: TGGTGGCTACGACGGGATT
B9: CAGUAGG (DNA:RNA)
RNA: B1 RNA with G26A, U27G, A30G
DNA 1: CAATCTGAATTCCGGTCTCCC
DNA 2: TGGTGGCTACGACGGGATT

What follows are binders tested against T1, RBFOX1 RRM (assay: EMSA; HiTS-Eq, 1 nM pool, 10 min; buffer printed only for the single-RNA assays: 10 mM Tris pH 7.5, 150 mM NaCl, 3.4 mM EDTA, 0.001% NP-40, 30 C). Settings: tags: His6 N-terminal (pET28a); label: 5' 32P.
Method in brief: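 Purified wild-type or mutant RbFox RRM at increasing concentrations was equilibrated with 1 nM of 5′-radiolabelled RNA carrying 7 randomized nucleotides for 10 min in 50 µL. Unbound RNA was separated by 8% native PAGE and sequenced. Relative association constants came from read-count changes of each RNA species compared with the control reaction, normalised to the cognate motif.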
With B1 the binding signal was 0.00898 KA relative to UGCAUGU. For B2, the binding signal was 0.00107 KA relative to UGCAUGU. In the case of B3, the binding signal is reported as 0.00349 KA relative to UGCAUGU. B4 was tested, and the binding signal was 0.00952 KA relative to UGCAUGU. In the case of B5, the binding signal is reported as 0.00183 KA relative to UGCAUGU. In the case of B6, the binding signal is reported as 0.0099 KA relative to UGCAUGU. In the case of B7, the binding signal is reported as 0.00643 KA relative to UGCAUGU. In the case of B8, the binding signal is reported as 0.0135 KA relative to UGCAUGU. B9 was tested, and the binding signal was 0.00953 KA relative to UGCAUGU.
